In PubChem BioAssay AID686970 (National Center for Advancing Translational Sciences (NCATS), 2013):
Out of some 360,000 compounds screened, about 6,000 (1.7%) were called active. Inconclusive means that the source gave no clear call. Such entries were picked first, then a sample of the others. Calls come from the whole dose curve; as a rule, active = well fitted cell-killing curve with a large enough effect; inconclusive = small, poorly fitted or top-dose-only effect, or effect the other way; inactive = flat fitted curve, though single readings scatter. No potency is given beside an inconclusive call; the fits are too rough.

Assay: qHTS for induction of synthetic lethality in tumor cells producing 2HG: qHTS for the HT-1080-NT fibrosarcoma cell line;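 note: NT is the 2HG producing partner of a matched IDH1 knockdown line; nearly all actives have a fitted effect of over 55% in size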;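 for activity, negative = less viability: 0% = DMSO-treated cells and -100% = media-only wells without cells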
Details: HT-1080-NT fibrosarcoma viability, CellTiter-Glo ATP luminescence, 48 h; activity, negative = less viability: at 46.1 µM (top of the series) unless noted
In short: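 Read-out is CellTiter-Glo luminescence after 10 minutes at room temperature, following 48 hours' compound treatment of HT-1080-NT cells (750 cells/well, RPMI, 5% FBS, 37 degrees C).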
Potency is the fitted concentration of half-maximal effect; tags give direction and shape of the fitted curve.

**Q.** Which “activity, negative = less viability” value does the source give for `CCOC(=O)C(Oc1ccc2c(-c3ccccc3)cc(=O)oc2c1C)c1ccccc1` (centres undefined) here?
**A.** inactive: 22.1%

**Q.** For `O=C(C[C@@H]1C/C=C\C[C@H](Cc2ccc(F)cc2)C(=O)OC[C@@H]2CCCN2C1=O)N[C@H](CO)Cc1ccccc1`, which “activity, negative = less viability” value is on record?
**A.** inactive: -3.33%

**Q.** For `N#Cc1cc(C(=O)c2cc(Cl)ccc2O)cn(-c2ccccc2)c1=O`, which “activity, negative = less viability” value is on record?
**A.** inactive: -0.832%

**Q.** For `CC(C)C[C@H](NC(=O)c1[nH]cnc1C(=O)Nc1ccc(CNC(=O)OC(C)(C)C)cc1)C(=O)OC(C)(C)C`, which Potency is on record?
**A.** inconclusive [cytotoxic, single point]

**Q.** Which “activity, negative = less viability” value does the source give for `NS(=O)(=O)c1ccc(NC(=O)CSc2cn[nH]n2)cc1` here?
**A.** inactive: 18.4%

**Q.** With `O=C(COc1ccccc1)N=C1SC2CS(=O)(=O)CC2N1c1cccc(F)c1` (centres undefined) as the compound, how does the “activity, negative = less viability” value read?
**A.** inactive: -5.2%

**Q.** With `O=C(Sc1ccc(Cl)cc1)c1ccccn1` as the compound, how does the Potency read?
**A.** inconclusive [cytotoxic, single point]

**Q.** With `CCC(=O)c1ccc(N2CCN(C(=O)c3cc([N+](=O)[O-])ccc3N3CCN(C)CC3)CC2)c(F)c1` as the compound, how does the Potency read?
**A.** inconclusive [cytotoxic, single point]

**Q.** With `CCOc1ncccc1C(=O)Nc1cccc(S(=O)(=O)NC2=NCCC2)c1` as the compound, how does the activity, negative = less viability read?
**A.** inactive: -6.83% [at 9.24 µM]

**Q.** For `Cc1ccc2c(c1)c(C)c(C)n2CC(O)Cn1nnc2ccccc21` (centres undefined), which Potency is on record?
**A.** inconclusive [cytotoxic, single point]

**Q.** With `COc1ccc(-n2c(Cc3cccn3C)nnc2SCC(=O)Nc2nc(C)cs2)cc1` as the compound, how does the “activity, negative = less viability” value read?
**A.** inactive: -2.92%

**Q.** For `CCCCCCc1cc2cc(S(=O)(=O)c3ccc(F)cc3)c(=O)oc2cc1O`, which Potency is on record?
**A.** inconclusive [cytotoxic, single point]

**Q.** With `Cc1nc(-c2ccc(C(=O)Nc3cccc(Br)c3)cc2)cs1` as the compound, how does the Potency read?
**A.** inconclusive [cytotoxic, partial curve]

**Q.** With `O=C(NNC(=O)c1ccccc1O)c1ccco1` as the compound, how does the Potency read?
**A.** inconclusive [rising, partial curve]

**Q.** Which Potency does the source give for `Cc1ccc(S(=O)(=O)c2c(N)n(Cc3ccco3)c3nc4ccccc4nc23)cc1C` here?
**A.** inconclusive [cytotoxic, partial curve]

**Q.** For `C/C(=N\NC(=O)COc1ccc(C(C)(C)C)cc1)c1ccccc1`, which Potency is on record?
**A.** inconclusive [cytotoxic, single point]

**Q.** For `O=C(Cc1ccc(N2CCNC2=O)cc1)N1CCCC(Nc2ccc(F)c(F)c2)C1` (centres undefined), which Potency is on record?
**A.** active: 3.26 µM

**Q.** For `CC(C)c1ccc(NC(=O)[C@H](NC(=O)[C@@H]2Cc3ccccc3CN2)c2ccccc2)cc1`, which Potency is on record?
**A.** inconclusive [cytotoxic, partial curve]

**Q.** Which Potency does the source give for `CN(NC(=O)Nc1ccc(Cl)cc1)c1ncc(C(F)(F)F)cc1Cl` here?
**A.** inconclusive [cytotoxic, single point]
